Measured values reported in PubChem BioAssay AID686978 (National Center for Advancing Translational Sciences (NCATS), 2013).
Among all 420,000 compounds or so, about 64,000 (15%) were called active. The inconclusive results got no clear call from the source; some entries with a clear call stand among them for comparison. Calls follow the shape of the dose curve; as a rule, active = well fitted inhibition curve with a large enough effect; inconclusive = small, poorly fitted or top-dose-only effect; inactive = flat fitted curve, though single readings scatter. Potencies of inconclusive entries are left out as doubtful fits.

Assay: qHTS for Inhibitors of human tyrosyl-DNA phosphodiesterase 1 (TDP1): qHTS in cells in absence of CPT; also: nearly all actives have a fitted effect of over 55% in size
Conditions: DT40 Tdp1-/- hTDP1 cells, no CPT, ATP luminescence, 48 h; activity change, negative = growth inhibition: at 46.2 µM (top of the series) unless noted
Summary of the method: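 Growth of hTDP1-complemented DT40 Tdp1-knockout cells is measured by ATP luminescence after at least 48 hr compound exposure at 37 °C, with DMSO substituting for the 20 nM CPT used in the parallel screen.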
% is scaled to controls: 0 for no effect and ±100 for the full control effect; potency is read from the fitted curve at half-maximal effect; tags tell the direction and shape of the fitted curve.

Compound	Potency	activity change, negative = growth inhibition
Brc1ccc2ncnc(NCc3cccnc3)c2c1	active: 20.6 µM	–
O=C(Nc1ncc(Cc2cccc(Cl)c2)s1)c1ccc([N+](=O)[O-])cc1	active: 8.2 µM	–
COc1ccc(NC(=O)CSc2nc3sc(C)cc3c(=O)n2C)cc1	–	inactive: -13%
CCC(C(=O)Nc1ccc([N+](=O)[O-])cn1)c1ccccc1 (stereo not given)	inconclusive [inhibitor, single point]	–
O=C(OCCCc1cc2ccccc2c(=O)o1)c1ccc2c(c1)OCO2	inconclusive [inhibitor, partial curve, poor fit]	–
COc1ccccc1CNc1ncncc1-c1ccc(N(C)C)cc1	inconclusive [inhibitor, single point]	–
O=C1c2ccccc2C(Nc2ccc(S(=O)(=O)N3CCOCC3)cc2)N1Cc1ccco1 (stereo not given)	inconclusive [inhibitor, single point]	–
Cc1ccc(-c2onc(C)c2C)cc1S(=O)(=O)N1CCc2ccccc21	active: 23.1 µM	–
COc1cccc(CC2(CO)CCCN(Cc3ccccc3-c3ccco3)C2)c1 (stereo not given)	inconclusive [inhibitor, partial curve]	–
O=C(NC(c1ccccc1)c1ccccc1)C1CCCC1	inconclusive [inhibitor, partial curve, poor fit]	–
CN(C(=O)c1ccc(OC2CCN(CCc3ccccc3)CC2)cc1)C1CCCCC1	inconclusive [inhibitor, single point]	–
CCOC(=O)c1cc2cc(CC(=O)c3ccc(OCC)cc3O)ccc2o1	inconclusive [inhibitor, single point]	–
CC(C)c1ccc(/C=C2\SC(=O)N(CC(=O)NC3CCS(=O)(=O)C3)C2=O)cc1 (stereo not given)	active: 16.4 µM	–
CC(C)(C)c1cc(C(=O)NNC(=O)Nc2cccc(Cl)c2)n(Cc2ccccc2)n1	inconclusive [inhibitor, single point]	–
COc1ccccc1CN(Cc1cc2cc3c(cc2[nH]c1=O)OCCO3)Cc1nnnn1Cc1ccco1	inconclusive [inhibitor, single point]	–
COC(=O)c1ccc(NC(=O)C(c2ccccc2)N2Cc3ccccc3C2=O)cc1 (stereo not given)	inconclusive [inhibitor, single point]	–
C(=N\Nc1nc(N2CCCC2)nc(N2CCCC2)n1)/c1cccnc1	inconclusive [inhibitor, single point]	–
COCCn1c(SCC(=O)Nc2cc(OC)ccc2OC)nc2c(c1=O)SC(C)C2 (stereo not given)	active: 13 µM	–
CN1CCN(c2ccc(-c3nc(-c4ccccc4)no3)cc2[N+](=O)[O-])CC1	active: 14.6 µM	–
Cc1ccc(S(=O)(=O)N(C)C)cc1NC(=O)CSc1nc2ncc(Cl)cc2[nH]1	inconclusive [inhibitor, single point]	–
Cc1cccc(CCNC(=O)CCc2c(C)nc3c(-c4ccc(F)cc4)c(C)nn3c2C)c1	active: 9.2 µM	–
CCOc1ccc(OCCSc2ccc(S(=O)(=O)N3CCN(C)CC3)cn2)cc1	inconclusive [inhibitor, single point]	–
Cc1cc(C(=O)N/N=C/c2c3ccccc3cc3ccccc23)n[nH]1	active: 9.2 µM	–

Compound	Potency	activity change, negative = growth inhibition
Cc1cc(C)cc(NC(=O)C2CCCN(c3nnc(-n4c(C)ccc4C)s3)C2)c1 (stereo not given)	inconclusive [inhibitor, single point]	–
COc1ccc(N2CCN(C(=O)c3cc4c(s3)-c3c(C)cccc3OC4)CC2)cc1	–	inactive: -23.4%
c1ccc(-c2nnc(SCc3cn4ccsc4n3)o2)cc1	inconclusive [inhibitor, partial curve]	–
O=C(CC1CC2CCC1C2)N1CCN(S(=O)(=O)c2ccc(C(F)(F)F)cc2)CC1 (stereo not given)	inconclusive [inhibitor, single point]	–
Cn1c(Cc2cccs2)nnc1SCC(=O)Nc1ccc(F)cc1F	–	inactive: -13.6%
CCCN(CCC)Cc1cc(=O)oc2cc(OC)ccc12	inconclusive [inhibitor, single point]	–
O=C(NNC(=S)Nc1ccc(F)cc1)c1cccc([N+](=O)[O-])c1	–	inactive: -2.98%
Cc1ccc(S(=O)(=O)CCC(=O)OCC(=O)Nc2ccc(N3CCOCC3)cc2)cc1	–	inactive: 9.01%
COc1cccc(N2CCN(C(=O)CCC(=O)c3ccc(Cl)s3)CC2)c1	–	inactive: -7.32%
COc1ccc(N2C[C@H](C)[C@@H](CC(=O)Nc3ccccc3)C2=O)cc1	inconclusive [inhibitor, single point]	–
COc1ccc(C)cc1NC(=O)CSc1nc(=O)n(CCCN2CCOCC2)c2c1CCCC2	inconclusive [inhibitor, partial curve]	–
O=C(NNC(=S)NC(=O)c1ccco1)c1ccc(F)cc1	inconclusive [inhibitor, single point]	–
CCOC(CCNC(=O)CCC(=O)Nc1ccc2nc(N3CCN(C)CC3)cc(C)c2c1)OCC	–	inactive: 0.899%
CCCc1ccc(OC(=O)c2sc3ncn(Cc4cccc(F)c4)c(=O)c3c2C)cc1	inconclusive [inhibitor, single point]	–
COc1cccc(-c2nnc(-c3ccccc3[N+](=O)[O-])o2)c1	inconclusive [inhibitor, single point]	–
CC(C)c1ccc(O)c(NC(=S)NC(=O)c2ccc3c(c2)OCO3)c1	active: 14.6 µM	–
O=C(NCCc1c[nH]c2ccccc12)c1cccc(Br)c1	inconclusive [inhibitor, single point]	–
CC(C)CC(c1nnnn1C(C)C)N1CCN(c2cccc(Cl)c2)CC1 (stereo not given)	inconclusive [inhibitor, single point]	–
CN(C)N1C(N)=C(C#N)C(c2cccc3ccccc23)C2=C1CC(c1ccccc1)CC2=O (stereo not given)	active: 7.31 µM	–
COc1ccccc1NC(=O)Cn1cnc2sc(C)c(S(=O)(=O)N3CCCCC3)c2c1=O	–	inactive: -4.83%
O=C(Nc1nncs1)c1ccc(Br)c(S(=O)(=O)N2CCCC2)c1	–	inactive: -4.95%
CCSc1nnc(-c2cccc(S(=O)(=O)N(CC)CC)c2)n1Cc1ccccc1	active: 17.8 µM	–
